Test results as given in the supplement of paper PMC4967469.
The IC50 comes from the fitted curve, where viability falls to half of the control; a limit (>, <) means that the fit lies beyond the doses tested. AUC, from the same fit, is the share of area under the viability curve across the 256-fold dose range; it is 1 without any effect and falls as sensitivity rises. An inferred top dose was calculated from the reported fits.

The cell lines below were run with CCOc1cc2ncc(C#N)c(Nc3ccc(F)c(Cl)c3)c2cc1NC(=O)/C=C/CN(C)C [EKB-569] (assay: Viability of human cancer cell lines after 72 h of drug (GDSC screen)). Details: top dose inferred.
Protocol: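 Human cancer cell lines in 384-well plates, medium with 10% serum, drug for 72 h over a 256-fold dose range (nine 2-fold or five 4-fold steps up to the top dose). Adherent lines were fixed and stained with the nucleic acid dye Syto60, suspension lines read with resazurin; signal relative to control wells, capped at 0 and 100%. One two-parameter sigmoid per drug and line, fitted in a mixed model over all curves with the slope shared within a line.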

| Cell Line | AUC | IC50 [µM] |
| --- | --- | --- |
| MDA-MB-468 (breast, adherent, top dose 2.5 µM) | 0.67 | 0.457 |
| HARA (lung squamous cell carcinoma, adherent, top dose 2.5 µM) | 0.782 | 1.23 |
| SLVL (B-cell lymphoma, suspension, top dose 2.5 µM) | 0.88 | > 2.5 |
| NCI-H2227 (small cell lung carcinoma, semi-adherent, top dose 2.5 µM) | 0.977 | > 2.5 |
| NCI-H322M (lung adenocarcinoma, suspension, top dose 2.5 µM) | 0.888 | > 2.5 |
| NB69 (neuroblastoma, adherent, top dose 2.5 µM) | 0.833 | 1.37 |
| VA-ES-BJ (soft tissue, adherent, top dose 2.5 µM) | 0.984 | > 2.5 |
| BFTC-905 (bladder, adherent, top dose 2.5 µM) | 0.966 | > 2.5 |
| MY-M12 (leukaemia, suspension, top dose 2.5 µM) | 0.977 | > 2.5 |
| NB6 (neuroblastoma, adherent, top dose 2.5 µM) | 0.916 | > 2.5 |
| A498 (kidney, adherent, top dose 2.5 µM) | 0.966 | > 2.5 |
| H-EMC-SS (chondrosarcoma, adherent, top dose 2.5 µM) | 0.942 | > 2.5 |
| OCI-M1 (acute myeloid leukaemia, suspension, top dose 2.5 µM) | 0.837 | 1.14 |
| G-402 (soft tissue, adherent, top dose 2.5 µM) | 0.918 | > 2.5 |
| SCC-4 (head and neck, adherent, top dose 2.5 µM) | 0.962 | > 2.5 |
| U-698-M (B-cell leukaemia, suspension, top dose 2.5 µM) | 0.955 | > 2.5 |
| MDA-MB-231 (breast, adherent, top dose 2.5 µM) | 0.96 | > 2.5 |

| Cell Line | AUC | IC50 [µM] |
| --- | --- | --- |
| NCI-H2347 (lung adenocarcinoma, adherent, top dose 2.5 µM) | 0.942 | > 2.5 |
| MFE-319 (endometrium, adherent, top dose 2.5 µM) | 0.975 | > 2.5 |
| MDA-MB-436 (breast, adherent, top dose 2.5 µM) | 0.983 | > 2.5 |
| KS-1 (glioma, adherent, top dose 2.5 µM) | 0.81 | 1.73 |
| PANC-03-27 (pancreas, adherent, top dose 2.5 µM) | 0.756 | 0.803 |
| TMK-1 (stomach, adherent, top dose 2.5 µM) | 0.985 | > 2.5 |
| HD-MY-Z (Hodgkin lymphoma, adherent, top dose 2.5 µM) | 0.768 | 0.938 |
| NUGC-4 (stomach, adherent, top dose 2.5 µM) | 0.895 | > 2.5 |
| HCC1419 (breast, adherent, top dose 2.5 µM) | 0.658 | 0.516 |
| SUP-T1 (T-cell lymphoblastic leukaemia, suspension, top dose 20 µM) | 0.677 | 3.7 |
| IM-95 (stomach, adherent, top dose 2.5 µM) | 0.724 | 0.711 |
| KOSC-2 (head and neck, adherent, top dose 2.5 µM) | 0.985 | > 2.5 |
| COR-L303 (small cell lung carcinoma, suspension, top dose 2.5 µM) | 0.945 | > 2.5 |
| TE-10 (oesophagus, adherent, top dose 2.5 µM) | 0.915 | > 2.5 |
| HCE-4 (oesophagus, adherent, top dose 2.5 µM) | 0.988 | > 2.5 |
| OVCAR-5 (ovary, adherent, top dose 2.5 µM) | 0.868 | > 2.5 |
